According to PubChem BioAssay AID588855 (National Center for Advancing Translational Sciences (NCATS), 2011):
Screen size: about 410,000 compounds; about 5,000 (1.2%) were called active. This list was built around the results that the source calls inconclusive (neither active nor inactive); the mix of calls is not that of the screen. The call rests on the fitted dose curve; in most records, active means well fitted inhibition curve with a large enough effect; inconclusive means small, poorly fitted or top-dose-only effect; inactive means no such curve, though single readings can be large or run the other way. Potencies of inconclusive entries are doubtful fits and often do not repeat.

assay: qHTS for Inhibitors of TGF-b; details: HepG2 CAGA-GFP TGF-b/SMAD3 reporter, GFP fluorescence, 18 h, TGF-beta stimulated, 500 pg/mL final; series mostly up to 46.1 µM; further: nearly all actives have a fitted effect of over 65% in size
Outline: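 Smad-responsive CAGA-GFP expression was quantified in HEPG2 cells exposed to compounds and 500 pg/mL final TGF-beta for 18 h at 37 degrees C; unstimulated wells defined full inhibition.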
Potency means the concentration at half of the fitted maximal effect; tags describe the fitted curve by direction and shape.

**Q.** Which Potency does the source give for CN(CC(=O)Nc1cccc(F)c1)C(=O)c1cn(-c2ccccc2)nc1-c1cccs1 here?
**A.** inconclusive: 35.5 µM [inhibitor, single point]

**Q.** For COc1ccccc1NC(=O)Cc1nnc(SCC(=O)Nc2ccccc2F)n1C, which Potency is on record?
**A.** inconclusive: 35.5 µM [inhibitor, single point]

**Q.** Which Potency does the source give for Cc1cc(C)cc(NC(=S)NCc2ccc3[nH]c4c(c3c2)CCCC4)c1 here?
**A.** inconclusive: 15.8 µM [inhibitor, single point]

**Q.** For CC(=O)NC(c1ccco1)c1cc(F)c2cccnc2c1O (configuration not stated), which Potency is on record?
**A.** inconclusive: 10 µM [inhibitor, partial curve, poor fit]

**Q.** Which Potency does the source give for COc1ccccc1-c1sc2ccccc2c1-c1ccc(OCCN2CCCCC2)cc1 here?
**A.** inconclusive: 35.5 µM [inhibitor, single point]

**Q.** Which Potency does the source give for O=C(NCc1cccnc1)C12CC3CC(CC(Cl)(C3)C1)C2 here?
**A.** inactive

**Q.** For Cc1ccc(-c2nc(CS(=O)(=O)CC(=O)NC(C)CCc3ccccc3)c(C)o2)cc1 (configuration not stated), which Potency is on record?
**A.** active: 11.2 µM

**Q.** For O=C(CCN1C(=O)/C(=C\c2cccc(Br)c2)SC1=S)N1CCOCC1, which Potency is on record?
**A.** inactive

**Q.** For CC1(C(=O)Nc2ccccc2Cc2ccccc2)CCN1Cc1ccccc1Cl (configuration not stated), which Potency is on record?
**A.** active: 12.6 µM

**Q.** Which Potency does the source give for C[C@H](CO)N1C[C@H](C)[C@@H](CN(C)S(=O)(=O)c2ccc(F)cc2)Oc2ccc(NC(=O)Nc3ccccc3)cc2C1=O here?
**A.** inactive

**Q.** Which Potency does the source give for CCCCCCSc1cccc(-c2nc3cc(C)ccn3c2NCc2ccccc2)c1 here?
**A.** inconclusive: 28.2 µM [inhibitor, single point]

**Q.** For CCOc1ccc(S(=O)(=O)Nc2nc3ccccc3nc2Cl)cc1, which Potency is on record?
**A.** inconclusive: 35.5 µM [inhibitor, single point]

**Q.** For CCc1nc(N2CCN(Cc3ccc4c(c3)OCO4)CC2)c2oc3ccccc3c2n1, which Potency is on record?
**A.** inconclusive: 0.794 µM [inhibitor, partial curve, poor fit]

**Q.** With S=c1[nH]nc(-c2cc(-c3ccccc3)n[nH]2)n1/N=C/c1ccc(Cl)c(Cl)c1 as the compound, how does the Potency read?
**A.** inconclusive: 35.5 µM [inhibitor, single point]

**Q.** For CC(NC(=O)CCc1cn(Cc2ccccc2Cl)c2ccccc12)c1ccccc1 (configuration not stated), which Potency is on record?
**A.** inconclusive: 3.98 µM [inhibitor, partial curve, poor fit]

**Q.** With O=C(NCCc1ccccc1)c1ccc(CSc2nc3cccnc3n2Cc2ccccc2)cc1 as the compound, how does the Potency read?
**A.** inconclusive: 5.62 µM [inhibitor, partial curve, poor fit]

**Q.** For O=C(Nc1ccc(F)c(Cl)c1)c1cc(S(=O)(=O)NCc2ccc3c(c2)OCO3)ccc1F, which Potency is on record?
**A.** inconclusive: 10 µM [inhibitor, partial curve, poor fit]

**Q.** For CC(C)c1ccc(-c2nn(-c3ccccc3)cc2C(=O)NCC2CCCO2)cc1 (configuration not stated), which Potency is on record?
**A.** inactive

**Q.** With CCOC(=O)N1CCc2c(sc3nc4n(c(=O)c23)N=C(c2ccc(OC)cc2)CS4)C1 as the compound, how does the Potency read?
**A.** inactive

**Q.** With CCC/C(=C1/c2ccccc2C(=O)N1c1ccccc1)c1ccc2[nH]ccc2c1 as the compound, how does the Potency read?
**A.** active: 11.2 µM

**Q.** For CCCCN(CC)CCNC(=O)Cn1cnc2sc(C)c(S(=O)(=O)N3CCN(c4ccccc4OC)CC3)c2c1=O, which Potency is on record?
**A.** inconclusive: 0.891 µM [inhibitor, full curve, poor fit]

**Q.** Which Potency does the source give for CC(C)Cc1nn2cc(-c3cccc(Br)c3)nc2s1 here?
**A.** inconclusive: 1.26 µM [inhibitor, full curve, poor fit]

**Q.** With CCOc1ccc2nc(N3CCCC(C(=O)NCCc4ccc(OC)cc4OC)C3)sc2c1 (configuration not stated) as the compound, how does the Potency read?
**A.** active: 17.8 µM

**Q.** For O=C(CCNC(=O)C1CCN(S(=O)(=O)c2ccccc2)CC1)NCc1ccc(Cl)c(Cl)c1, which Potency is on record?
**A.** inconclusive: 35.5 µM [inhibitor, single point]

**Q.** Which Potency does the source give for CCN(CC)S(=O)(=O)c1cccc(NC(=O)Nc2cccc(C(F)(F)F)c2)c1 here?
**A.** active: 7.94 µM

**Q.** For CCN(CC)CCCNC1=C(Cl)C(=O)c2ccccc2C1=O, which Potency is on record?
**A.** active: 4.47 µM

**Q.** For CCCC(=O)NC(=S)Nc1ccc(C(C)=O)cc1, which Potency is on record?
**A.** inactive

**Q.** With CNC(=O)C1CCCN(c2nnc(C)c3c(C)n(-c4ccccc4)nc23)C1 (configuration not stated) as the compound, how does the Potency read?
**A.** inactive

**Q.** With CN1CCN(CCCC(=O)c2ccc(C3CCCC3)cc2)CC1 as the compound, how does the Potency read?
**A.** inconclusive: 22.4 µM [inhibitor, single point]

**Q.** For COc1ccccc1N1CCc2c(C)nc3c(OC)cccc3c21, which Potency is on record?
**A.** inconclusive: 22.4 µM [inhibitor, single point]

**Q.** Which Potency does the source give for CC(=O)N1CCOc2ccc(S(=O)(=O)NCCc3ccc(Cl)cc3)cc21 here?
**A.** inactive

**Q.** Which Potency does the source give for CCOc1ccc(-c2nnc(SCC(=O)Nc3ccc4c(c3)c3ccccc3n4CC)n2N)cc1 here?
**A.** inconclusive: 35.5 µM [inhibitor, single point]

**Q.** For O=C(NCc1n[nH]c(=S)n1-c1ccc(Cl)c(Cl)c1)c1cccs1, which Potency is on record?
**A.** inconclusive: 22.4 µM [inhibitor, single point]

**Q.** Which Potency does the source give for Cc1ccccc1N1CCN(CCCN2C(=O)CC(=C(c3ccccc3)c3ccccc3)C2=O)CC1 here?
**A.** inconclusive: 17.8 µM [inhibitor, single point]

**Q.** Which Potency does the source give for COc1ccc(C2C3C=CCCC3(C)C(=O)N2Cc2ccccc2)cc1Cl (configuration not stated) here?
**A.** active: 14.1 µM

**Q.** For O=C1C2C3c4ccccc4C(c4ccccc43)[C@@H]2C(=O)N1c1cccnc1 (some centres not stated), which Potency is on record?
**A.** inconclusive: 35.5 µM [inhibitor, single point]

**Q.** Which Potency does the source give for O=C1COc2ccc(S(=O)(=O)N3CCC(C(=O)NCc4ccc(F)cc4)CC3)cc2N1 here?
**A.** inactive

**Q.** Which Potency does the source give for CCc1cc(-c2onc(C)c2-c2cscn2)c(O)cc1OC here?
**A.** inactive

**Q.** Which Potency does the source give for Cc1ccc(-c2csc(NCCn3c(-c4ccncc4)nc4ccccc43)n2)cc1 here?
**A.** inconclusive: 3.98 µM [inhibitor, single point]

**Q.** Which Potency does the source give for C=CCN(CC=C)Cc1cc(=O)oc2cc(C)c(C)cc12 here?
**A.** inconclusive: 22.4 µM [inhibitor, single point]

**Q.** For Cc1cccc(NC(=O)CSc2nc3nc(C)cc(C)c3c(=O)[nH]2)c1, which Potency is on record?
**A.** inconclusive: 35.5 µM [inhibitor, single point]

**Q.** For C[C@H](O)CC(=O)O, which Potency is on record?
**A.** inactive

**Q.** With O=C(NCc1ccccn1)c1ccc(/C=N/O)nc1 as the compound, how does the Potency read?
**A.** inactive

**Q.** Which Potency does the source give for O=C(Nc1c(C(=O)c2ccc(F)cc2)oc2ccccc12)c1cc(-c2ccccc2)on1 here?
**A.** inactive

**Q.** Which Potency does the source give for CCn1c(COc2c(C)cccc2C)nnc1SCC(=O)N1CCN(c2ccccc2)CC1 here?
**A.** inconclusive: 20 µM [inhibitor, single point]

**Q.** For Cc1ccc(-c2nc(N)sc2-c2ccccc2)cc1C, which Potency is on record?
**A.** inconclusive: 35.5 µM [inhibitor, partial curve, poor fit]

**Q.** For CCN(CC)CCCC(C)NC(=O)c1c(NC(=O)c2ccccc2)sc2c1CCCC2 (configuration not stated), which Potency is on record?
**A.** inconclusive: 11.2 µM [inhibitor, single point]

**Q.** With CCN(CC)S(=O)(=O)c1cc(NC(=O)CCNC(=O)c2ccccc2Cl)ccc1C as the compound, how does the Potency read?
**A.** inconclusive: 31.6 µM [inhibitor, single point]

**Q.** Which Potency does the source give for COc1ccccc1CNC(=O)c1csc(Cc2ccc(Cl)cc2)n1 here?
**A.** inconclusive: 35.5 µM [inhibitor, single point]

**Q.** With Cc1ccc(C)c(N(C)C(=O)C2CCN(c3ncnc4c3nc3n4CCCCC3)CC2)c1 as the compound, how does the Potency read?
**A.** inconclusive: 35.5 µM [inhibitor, single point]

**Q.** With COc1ccc(Oc2ccc(/C=N/NC(=O)c3cccnc3)cc2[N+](=O)[O-])cc1 as the compound, how does the Potency read?
**A.** inactive

**Q.** For CN(C)CCCN1C(=O)c2cccc3c([N+](=O)[O-])ccc(c23)C1=O, which Potency is on record?
**A.** inconclusive: 22.4 µM [inhibitor, single point]

**Q.** For Fc1cc(NC(=S)NCc2ccc(CNC(=S)Nc3ccc(Cl)c(F)c3)cc2)ccc1Cl, which Potency is on record?
**A.** inconclusive: 2 µM [inhibitor, full curve, poor fit]

**Q.** Which Potency does the source give for O=C(O)CC1=C(Nc2ccccc2)C(=O)N(c2ccccc2)C1c1ccc(Cl)cc1 (configuration not stated) here?
**A.** inconclusive: 35.5 µM [inhibitor, single point]

**Q.** Which Potency does the source give for Cc1ccc(C(O)c2ncc(-c3ccc(C(F)(F)F)cc3)[nH]2)cc1F (configuration not stated) here?
**A.** inconclusive: 14.1 µM [inhibitor, partial curve]

**Q.** For COc1ccc(CCNC(=O)CCCCCn2c(SCC(N)=O)nc3cc4c(cc3c2=O)OCO4)cc1OC, which Potency is on record?
**A.** inconclusive: 3.16 µM [inhibitor, single point]

**Q.** With Cc1ccc(S(=O)(=O)Nc2ccc(NC(=O)CN3CCCCC3)c(Cl)c2)cc1 as the compound, how does the Potency read?
**A.** inconclusive: 35.5 µM [inhibitor, single point]

**Q.** With CCOc1ccccc1CNC(=O)CCCc1cn(C)c2ccccc12 as the compound, how does the Potency read?
**A.** inactive

**Q.** Which Potency does the source give for O=C(Nc1ccc(-c2nc3ccccc3o2)cc1)c1ccc(N2CCOCC2)c([N+](=O)[O-])c1 here?
**A.** inconclusive: 0.447 µM [inhibitor, full curve]

**Q.** With CCC(C)c1nc2ccsc2c(N2CCOC2=O)c1-c1ccccc1 (configuration not stated) as the compound, how does the Potency read?
**A.** inactive

**Q.** Which Potency does the source give for COc1cc(-c2ccc3oc(-c4cccc(C)c4)c(C#CC4(O)CCCCC4)c3c2)cc(OC)c1OC here?
**A.** inconclusive: 15.8 µM [inhibitor, single point]

**Q.** For Cc1[nH]n(C(N)=S)c(=O)c1N=Nc1ccc(Br)cc1, which Potency is on record?
**A.** inconclusive: 0.447 µM [inhibitor, full curve, poor fit]

**Q.** For Cc1ccc(-n2c(SCC(=O)c3c(N)n(C)c(=O)n(C)c3=O)nc3sc4c(c3c2=O)CCCC4)c(C)c1, which Potency is on record?
**A.** inconclusive: 5.62 µM [inhibitor, full curve, poor fit]

**Q.** For O=C(OCC(=O)N1CCN(C(=O)c2ccco2)CC1)c1c(Cl)cccc1Cl, which Potency is on record?
**A.** inactive

**Q.** For O=C(COC(=O)COc1ccc(Cl)cc1Cl)NC1CCCC1, which Potency is on record?
**A.** inactive

**Q.** For Nc1nonc1-n1nnc(C(=O)N/N=C/c2ccoc2)c1CSc1ccc(Cl)cc1, which Potency is on record?
**A.** inactive

**Q.** Which Potency does the source give for Cc1ccc2c(c1)c1c3n2CCN(C(=O)CN2CCN(C)CC2)C3CCC1 (configuration not stated) here?
**A.** inconclusive: 35.5 µM [inhibitor, single point]
